“And” between values parts separate entries of the source, which are not always exact repeats. Equal entries are not always repeated.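 Interpolation was linear, between the two tested concentrations surrounding the appropriate level; five concentrations were tested over 48 hours in 96-well plates. GI50 = concentration required for 50% inhibition of growth. TGI: concentration producing complete growth inhibition.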
Tested on: NCI-H322M lung
Test: DTP human tumour cell line panel, 48 h

Compound	TGI	GI50
CCN1CCN(c2nc3ccccc3c3c2CCOc2ccccc2-3)CC1	> 66.7 µM	
CC1=C(/C=C/Cl)CC(Cl)C(C)(Cl)C1 (stereo not drawn)	> 100 µM	
NS(=O)(=O)c1ccc(-c2ccc3c(NC(=O)C4CC4)n[nH]c3c2)cc1	> 25 µM	> 25 µM
O=c1cc(N2CCCC2)[nH]c(=O)n1-c1cccc(Cl)c1	> 100 µM	
COc1ccc(-c2cc(-c3cc(C)cc(Br)c3O)no2)cc1	26.1 µM	
CCCCCCCCCCCCCCCC(=O)OCC(C[As](=O)(O)O)OC(=O)CCCCCCCCCCCCCCC (stereo not drawn)	> 100 µM	
COc1cc2ncnc(-n3ncc4cc(NC(=O)Nc5ccccc5)ccc43)c2cc1OC	11.4 µM	0.741 µM
COc1cc(OC)c2c(C)cc(=O)oc2c1	> 100 µM	
Nc1nc(-[n+]2ccc(-c3ccncc3)cc2)nc(Cl)c1Cl	> 100 µM	
CN(Cc1ccccc1)C(=O)c1ccccc1C(=O)O	> 100 µM	
N#CCCC(CCC#N)(CCC#N)NO	> 100 µM	
COc1ccc(C[N+](C)(C)N)cc1OC	> 100 µM	
C[Si](C)(C)OC1CC(=O)OC1n1cc(F)c(=O)[nH]c1=O (stereo not drawn)	> 100 µM	
C=C(C)[C@H]1Cc2c(ccc3c2O[C@@H]2COc4cc(OC)c(OC)cc4[C@@H]2C3=O)O1	> 100 µM	
COc1c2c(cc3c1OCO3)[C@]13C=C[C@H](OC)C[C@H]1N(C2)CC3O (stereo partly drawn)	> 100 µM	
Cc1sc2nc(-c3cccc([N+](=O)[O-])c3)c(/C=N/N=C(N)N)n2c1C	3 µM	
CN1CCc2nc(N)nc(-c3nc(N)nc4c3CN(C)CC4)c2C1	> 100 µM	
Nc1ccc(Cc2c(N)[nH]c(=O)[nH]c2=O)cc1	> 100 µM	
COC(=O)c1cc2c(cc1CC(Cc1ccc3c(c1)CCCC3)C(=O)OC)CCCC2 (stereo not drawn)	> 100 µM	
CCOC(=O)Cc1nc2cc(F)c(F)cc2[nH]c1=O	> 100 µM	
CN(C(=O)Cc1cccc(N=C=S)c1)[C@H]1CCCC[C@@H]1N1CCCC1	32.1 µM	
CN=C(SC)N(C)c1nc(=[N+](C)C)ss1	> 100 µM	
COc1cc(OC)c(C(=O)/C=C/c2cccc(C(F)(F)F)c2)c(OC)c1	5.18 µM	1.49 µM

Compound	TGI	GI50
CC1(C)/C(=C/N=O)N(O)C(C)(C)N1O	> 100 µM	
Nc1ccccc1C#C/C=C\C#Cc1ccccc1N	54.1 µM	19.1 µM
CC1S/C(=N\N=C2/C(=O)Nc3ccc(Br)cc32)N(C2CCCCC2)C1=O (stereo not drawn)	7.08 µM	
C(/C=C/Nc1ccc(Oc2ccccc2)cc1)=Nc1ccc(Oc2ccccc2)cc1	30.3 µM	
CN1CCN(CCCNc2nc3ccc(Oc4ccc(NC(=O)Nc5cc(C(F)(F)F)ccc5F)cc4)cc3[nH]2)CC1	11.4 µM	5.35 µM
Cc1ccc(NC(=O)c2cccc(C(C)(C)C#N)c2)cc1Nc1ccc2ncn(C)c(=O)c2c1	> 100 µM	3.12 µM
CCOC(=O)c1ccc(NCc2ccc3oc(=O)c(-c4ccccc4)nc3c2)cc1	> 100 µM	
COC(=O)Nc1nc2ccc(S(=O)(=O)SC)cc2[nH]1	> 100 µM	
COc1ccc(-c2[nH]c3ccc(OC)cc3c2/C=C(\C#N)S(=O)(=O)c2ccccc2)cc1	> 100 µM	4.27 µM
COCC[C@H]1CCC/C=C/[C@@H]2C[C@H](O)C[C@H]2[C@H](O)/C=C/C(=O)O1	> 100 µM	0.0913 µM
O=C(c1cccc2ccccc12)N1CCC(C2CCN(C(=O)c3cccc4ccccc34)CC2)CC1	> 100 µM	
CCNCCNc1cc(-c2ccc(C(F)(F)F)cc2)c(C#N)c2nc3ccccc3n12	2.75 µM	1.34 µM
COC1=C(OC)C(=O)C(Cc2c(C)nc3sccn23)=C(C)C1=O	36.2 µM	
O=C(/C=C/c1ccc2ccccc2c1)NCc1ccc(C(=O)NCCc2ccccc2)cc1	> 100 µM	
O=C(Nc1ccccc1-c1nc2ccccc2[nH]c1=O)c1ccccc1	60.6 µM	
CC(CC[C@@]1(C)C(=O)CCC2O[C@]21C)[C@H]1C[C@@H](c2ccoc2)OC1=O (stereo partly drawn)	> 100 µM	
CO/C=C(/C(=O)OC)c1ccccc1COc1cccc(C(F)(F)F)c1	65.7 µM	
O=C1CC(c2cccc([N+](=O)[O-])c2)C2(C(=O)NC(=O)NC2=O)C(c2cccc([N+](=O)[O-])c2)C1 (stereo not drawn)	77.2 µM	
CCCCC(CC)COC(=O)C[N+](C)(C)CCOC(c1ccccc1)c1ccccc1 (stereo not drawn)	24.9 µM	11 µM
CCN(CC)C1CC(O[C@H]2C[C@](O)(C(=O)CO)Cc3c(O)c4c(c(O)c32)C(=O)c2c(OC)cccc2C4=O)OC(C)C1O (stereo partly drawn)	0.258 µM	
COC(=O)Nc1nc2ccc(C3(c4ccc(F)cc4)OCCO3)cc2[nH]1	> 100 µM	0.638 µM
C=CCCCCC/C=C\[C@@H](O)C#CC#C/C=C/CO	> 100 µM	> 100 µM
Cc1ccc2c3c1O[C@H]1c4[nH]c5ccccc5c4C[C@@]4(O)[C@@H](C2)N(CC2CC2)CC[C@]314	32.2 µM	

Compound	TGI	GI50
Cc1cc(C)c(NC(=O)c2sc3nc4c(cc3c2N)C(=O)CCC4)c(C)c1	> 100 µM	8.98 µM
CCOC(=O)c1cn2c(n1)sc1cc(Cl)ccc12	> 100 µM	
COc1cc2oc(-c3ccc(O)cc3)c(OC)c(=O)c2c(O)c1OC	> 100 µM	66.3 µM
O=[N+]([O-])c1ccc(S(=O)(=O)n2c3ccc(Br)cc3c3nc4ccccc4nc32)cc1	> 100 µM	
N#Cc1c(-c2ccccc2)[nH]c2ccc(Cl)cc2c1=O	> 100 µM	
CCOC(=O)CCC(=O)C1c2cccc(O)c2C(=O)c2c(O)cc(C)cc21 (stereo not drawn)	1.49 µM	
CC(=O)OC1C(Oc2c(C)cc3c(c2O)[C@@H](C)CC[C@@H]3[C@@H](C)CCC=C(C)C)OCC(O)C1O (stereo partly drawn)	32.6 µM	
Oc1c(N2CCOCC2)cc(-c2cc(N3CCOCC3)c(O)c3ccccc23)c2ccccc12	3.44 µM	
Cc1cc2nc(C=C(C(F)(F)F)C(F)(F)F)oc2cc1C	7.24 µM	
Cc1ccc(S(=O)(=O)N/N=C2/CCCOC2)cc1	> 100 µM	
O=c1cc(NCC(O)CN2CCCC2)n(Cc2ccccc2)c(=O)n1Cc1ccccc1 (stereo not drawn)	> 100 µM	41.2 µM
COc1c(C)cc2c(c1O)C1C3[C@H]4SC[C@@]5(NCCC6=C5NC5C=CC=CC65)C(=O)OCC(c5c6c(c(C)c(OC(C)=O)c54)OCO6)N3[C@@H](O)C(C2)N1C (stereo partly drawn)	0.103 µM	
COc1ccc(C(=O)c2cc(C)c(OC)c(C)c2)cc1OC(=O)CCl	> 100 µM	0.0102 µM
CCc1cc(Cc2cc(CC)c(NC(=O)C(=O)CC(=O)c3sc(-c4cccnc4)nc3C)c(CC)c2)cc(CC)c1NC(=O)C(=O)CC(=O)c1sc(-c2cccnc2)nc1C	> 100 µM	
C[C@@H](c1ccccc1)n1c(N)c(C#N)c2ccc([N+](=O)[O-])cc2c1=O	57 µM	
C[N+]1(C)CCc2cc(O)c(O)cc2C1Cc1ccc(O)c(O)c1 (stereo not drawn)	> 100 µM	
CC(C)=CCC(O)[C@](C)(O)[C@H]1[C@H](O)C[C@@]2(C)[C@@H]3CCc4cc(O)c(OC5OC(CO)C(O)C(O)C5O)cc4C3(C)C(=O)C[C@]12C (stereo partly drawn)	> 100 µM	
COc1cc(Cc2nccc3cc(OC)c(OC)cc23)c(C(C)=O)cc1OC	192 µM and > 750 µM	
CCCC(CCC)NCC(O)c1cc(-c2ccc(C(F)(F)F)cc2)nc(C(F)(F)F)c1 (stereo not drawn)	3.43 µM	1.84 µM
CC1=CC(=O)C=CC1=O	132 µM	24.2 µM
CC1(C)C(=O)/C(=C\c2cccnc2)C[C@]2(C)[C@H]3CC[C@@H]4[C@H]5[C@H](C(=O)/C=C/c6cccnc6)CC[C@]5(C(=O)O)CC[C@@]4(C)[C@]3(C)CC[C@@H]12	13.5 µM	3.52 µM
Cn1c([C@H](C#N)c2ncccc2[N+](=O)[O-])nc2ccccc21	> 100 µM	
Nc1nc(-c2ccccc2)cc(-c2ccc(OCc3ccccc3)cc2O)n1	> 100 µM	

From PubChem BioAssay (NCI)
